Test results published in publication PMC4336329 (PLoS ONE, 2015).
The whole screen tested about 310,000 compounds, of which about 2,200 (0.71%) showed an effect of 50% or more. The effect is printed as a negative number. The list shows a part of the results.

target: human ether-à-go-go-related gene (hERG) potassium channel (human, UniProt Q12809); assay: primary screen, population patch clamp on CHO cells stably expressing hERG
Sequence (Q12809 whole entry, looked up): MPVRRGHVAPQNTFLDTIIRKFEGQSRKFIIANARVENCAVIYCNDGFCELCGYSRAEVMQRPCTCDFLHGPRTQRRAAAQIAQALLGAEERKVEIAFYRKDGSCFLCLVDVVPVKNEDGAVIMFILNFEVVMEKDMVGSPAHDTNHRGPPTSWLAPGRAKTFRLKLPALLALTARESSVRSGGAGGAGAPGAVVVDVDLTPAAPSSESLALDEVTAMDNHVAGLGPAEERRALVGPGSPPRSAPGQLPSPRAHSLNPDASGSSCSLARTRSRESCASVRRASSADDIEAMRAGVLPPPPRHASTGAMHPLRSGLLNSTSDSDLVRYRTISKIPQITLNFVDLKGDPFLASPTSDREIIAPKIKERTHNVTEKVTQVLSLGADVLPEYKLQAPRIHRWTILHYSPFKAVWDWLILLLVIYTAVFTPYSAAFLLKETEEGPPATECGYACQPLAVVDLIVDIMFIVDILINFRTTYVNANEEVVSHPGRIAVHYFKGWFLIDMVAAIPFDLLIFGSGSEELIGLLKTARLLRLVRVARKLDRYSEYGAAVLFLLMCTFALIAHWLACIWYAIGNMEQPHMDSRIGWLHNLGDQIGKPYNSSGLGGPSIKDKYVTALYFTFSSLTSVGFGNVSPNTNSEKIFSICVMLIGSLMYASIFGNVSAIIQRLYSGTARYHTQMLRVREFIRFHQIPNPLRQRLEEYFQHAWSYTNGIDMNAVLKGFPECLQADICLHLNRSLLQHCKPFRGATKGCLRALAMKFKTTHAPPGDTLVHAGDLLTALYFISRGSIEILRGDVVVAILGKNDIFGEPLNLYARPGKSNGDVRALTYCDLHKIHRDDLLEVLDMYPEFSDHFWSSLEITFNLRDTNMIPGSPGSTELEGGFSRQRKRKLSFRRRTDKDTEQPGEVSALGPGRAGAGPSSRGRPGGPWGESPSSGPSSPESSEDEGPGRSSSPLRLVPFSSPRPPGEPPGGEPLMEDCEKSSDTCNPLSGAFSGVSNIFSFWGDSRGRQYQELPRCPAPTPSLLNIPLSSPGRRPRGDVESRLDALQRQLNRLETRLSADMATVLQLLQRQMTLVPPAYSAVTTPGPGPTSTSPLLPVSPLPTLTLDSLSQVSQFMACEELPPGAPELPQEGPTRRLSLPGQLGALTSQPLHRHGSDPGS

Going from CCN(C(=O)COC(=O)COc1ccc(Cl)c(C)c1)C1CCS(=O)(=O)C1 (stereo not shown) to CCOc1ccc(S(=O)(=O)N(CC(=O)NCC2CCCO2)c2ccc(F)cc2)cc1 (stereo not shown), the “hERG current change (%, negative = inhibition) at 1uM” value rises from -9.42% to -1.26%.

First: COC(=O)c1sccc1NC(=O)CCC1CCCCC1
Second: CCC(=O)NNC(=O)CCC(=O)Nc1cccc(Cl)c1C
The “hERG current change (%, negative = inhibition) at 1uM” value of the first is lower: 5.13% for the first, 12.4% for the second.

Compared with Cn1cccc1C(=O)OCc1cc(-c2ccco2)on1, CC(=O)c1ccc(OCc2cc(C(=O)N(C)Cc3ccon3)no2)cc1 is lower in “hERG current change (%, negative = inhibition) at 1uM” value: 15.3% for the first, -0.087% for the second.

Going from Cc1ccccc1C(=O)NCC(=O)Nc1ccccc1C(F)(F)F to O=C(CCNC(=O)c1ccccc1Cl)NNC(=O)c1ccccc1O, the “hERG current change (%, negative = inhibition) at 1uM” value falls from 15.2% to 14%.

Compared with N#Cc1ccc(OCC(=O)Nc2nc(-c3ccncc3)cs2)cc1, COc1ccc(-c2cnc3c(c2)CCC3(C#N)C#N)cc1 is lower in “hERG current change (%, negative = inhibition) at 1uM” value: 1.01% for the first, 0.108% for the second.

Compared with COc1ccccc1N1CCN(C(=O)CCc2ccc(S(=O)(=O)NCC(C)C)cc2)CC1, O=C(CS(=O)(=O)Cc1ccccc1)N1CCN(c2ccccc2F)CC1 is higher in “hERG current change (%, negative = inhibition) at 1uM” value: 2.51% for the first, 3.6% for the second.

First: C=CCSc1nnc(NC(=O)CCNC(=O)c2ccco2)s1
Second: CCn1c(CNC(=O)c2ccco2)nnc1SCC(=O)Nc1cc(C(F)(F)F)ccc1Cl
The “hERG current change (%, negative = inhibition) at 1uM” value of the first is higher: -0.919% for the first, -8.83% for the second.

Going from Cc1ccc(CN(C)C(=O)c2ccccc2Oc2ccccc2)o1 to CCN(Cc1ccccc1)C(=O)COC(=O)c1n[nH]c2ccccc12, the “hERG current change (%, negative = inhibition) at 1uM” value falls from 7.1% to 4.61%.

First: O=C(Nc1ccc(F)cc1F)N1CCCN(c2ccc([N+](=O)[O-])cn2)CC1
Second: CCOC(=O)N1CCN(S(=O)(=O)c2ccc(F)c(C(=O)Nc3cccc(Cl)c3C)c2)CC1
The “hERG current change (%, negative = inhibition) at 1uM” value of the first is lower: -5.95% for the first, -1.1% for the second.

Going from Cc1cc([N+](=O)[O-])ccc1N to Cc1ccccc1C(=O)O/N=C(\N)c1cccc([N+](=O)[O-])c1, the “hERG current change (%, negative = inhibition) at 1uM” value falls from 6.84% to 0.696%.

Going from NC(=O)c1ccc(Cc2ncc(C(F)(F)F)cc2Cl)s1 to O=C(CCc1ccccc1)Nc1nc2c(F)cc(F)cc2s1, the “hERG current change (%, negative = inhibition) at 1uM” value falls from 13.7% to 10.3%.

First: O=C(NCc1ccccc1)C1=C[C@H](c2coc3ccccc3c2=O)C[C@H](OCCCCO)O1
Second: CC(C)C[C@H](NC(=O)N1CCn2c1nc1ccccc12)C(=O)NCc1ccccc1
The “hERG current change (%, negative = inhibition) at 1uM” value of the first is lower: -26.8% for the first, 4.77% for the second.

Compared with O=[N+]([O-])c1cccnc1N1CCCNCC1, O=c1c2ccccc2nc(N2CCCC2)n1-c1ccccc1 is higher in “hERG current change (%, negative = inhibition) at 1uM” value: -1.75% for the first, 10.4% for the second.

First: O=C(N/N=C/c1cccs1)C1COc2ccccc2O1 (stereo not shown)
Second: O=C(CCn1c(=O)sc2ccccc21)NCc1ccc2c(c1)OCO2
The “hERG current change (%, negative = inhibition) at 1uM” value of the first is lower: 5.09% for the first, 22.1% for the second.

Compared with CN1CCN(C(=S)Nc2ccc(Oc3ccccc3)cc2)CC1, CCCCC(O)(c1ccc(CC)cc1)C(CN1CCOCC1)c1ccccc1.Cl (stereo not shown) is higher in “hERG current change (%, negative = inhibition) at 1uM” value: 3.76% for the first, 8.88% for the second.

Compared with O=C(c1ccc2c3c(cccc13)CC2)C1CCCN(CC2CC2)C1 (stereo not shown), O=C(C1CCCN(c2nnc(-n3cccc3)s2)C1)N1CCN(c2ccccc2)CC1 (stereo not shown) is higher in “hERG current change (%, negative = inhibition) at 1uM” value: 0.988% for the first, 8.86% for the second.

First: COc1cc(-c2cc(N)n(S(=O)(=O)c3ccc(F)cc3)n2)cc(OC)c1OC
Second: COc1ccc([C@H]2CC(=O)C=C(c3cccc(OC)c3OC)C2)cc1OC
The “hERG current change (%, negative = inhibition) at 1uM” value of the first is lower: 0.825% for the first, 6.52% for the second.

Going from CCOC(=O)CN1N=C(c2ccc(Cl)cc2)CCC1=O to O=C(CNC(=O)c1ccc(Br)o1)NCc1ccc(Cl)cc1Cl, the “hERG current change (%, negative = inhibition) at 1uM” value falls from 5.31% to 5.24%.

First: CCOc1ccc(Oc2ccc(S(=O)(=O)N3CCOCC3)cc2N)cc1
Second: Cc1cccc(OC(C)C(=O)Nc2cc(S(=O)(=O)N3CCCCC3)ccc2C)c1 (stereo not shown)
The “hERG current change (%, negative = inhibition) at 1uM” value of the first is higher: 5.58% for the first, 0.572% for the second.

Going from COc1nccc(Nc2ccccc2)c1C#N to O=C1Nc2ccccc2C1Cc1ccccc1 (stereo not shown), the “hERG current change (%, negative = inhibition) at 1uM” value rises from -2.66% to 1.62%.

Going from Cc1c(CCC(=O)NC2CC2)c(=O)oc2cc(O)ccc12 to COc1ccccc1/C=C1\SC(=S)N(CC(=O)Nc2nnc(C)s2)C1=O, the “hERG current change (%, negative = inhibition) at 1uM” value rises from 8.18% to 12.7%.

First: CCSc1nnc(NC(=O)C2CC2c2ccccc2)s1 (stereo not shown)
Second: CN(C)CCCN(C(=O)CCc1ccccc1)c1nc2ccc(Cl)cc2s1.Cl
The “hERG current change (%, negative = inhibition) at 1uM” value of the first is higher: 11.6% for the first, 2.37% for the second.

Going from CCCn1c(-c2cccnc2Cl)nc2cc(Cl)c(Cl)cc21 to CCCn1nc(NS(=O)(=O)c2cccc3nonc23)c2cc3ccccc3nc21, the “hERG current change (%, negative = inhibition) at 1uM” value rises from 4.17% to 13.5%.

First: COc1ccc(CN2CCN(c3ccc(F)cc3)CC2)c(OC)c1OC
Second: COc1cc(COCC(O)CN2CCOCC2)cc(OC)c1OC.Cl (stereo not shown)
The “hERG current change (%, negative = inhibition) at 1uM” value of the first is lower: -35.4% for the first, -0.425% for the second.

First: CCCCn1c(N)c(N(CCOC)C(=O)CCCc2cccs2)c(=O)[nH]c1=O
Second: CCN(CC(=O)NCc1cccs1)C(=O)c1ccc(S(=O)(=O)Nc2ccccc2C)cc1
The “hERG current change (%, negative = inhibition) at 1uM” value of the first is lower: -5.03% for the first, 15.8% for the second.

Compared with CC(C)C(=O)Nc1ccccc1N1CCN(S(C)(=O)=O)CC1, COc1ccc(CNC(=O)C(NS(=O)(=O)c2ccc3c(c2)CCCN3C(C)=O)C(C)C)cc1 (stereo not shown) is lower in “hERG current change (%, negative = inhibition) at 1uM” value: 6.46% for the first, -4.53% for the second.

First: Cc1ccc(C)c(NC(=O)C2CCCN2S(=O)(=O)c2ccc3c(c2)n(C)c(=O)c(=O)n3C)c1 (stereo not shown)
Second: CCc1nn2c(=O)c(S(=O)(=O)Nc3cccc(F)c3)c(C)nc2s1
The “hERG current change (%, negative = inhibition) at 1uM” value of the first is lower: -3.19% for the first, 10.4% for the second.

Compared with CC12CCC(C(=O)NC3CCCCC3)([C@H](Br)C1=O)C2(C)C (stereo partly shown), CC(=O)CCN1CCOCC1 is higher in “hERG current change (%, negative = inhibition) at 1uM” value: 9.98% for the first, 11.4% for the second.

Compared with CCCCNC(=O)Nc1nc(SCC(=O)OCC)n[nH]1, CN1CCN(C(=O)c2cc(Oc3c(F)c(F)c(F)c(F)c3F)cc(C(=O)N3CCN(C)CC3)c2)CC1 is higher in “hERG current change (%, negative = inhibition) at 1uM” value: 8.92% for the first, 17% for the second.
